From PubChem BioAssay (NCATS)
Several values for one entry are separate records, joined by “and”; a condition that tells them apart may be missing. Equal entries are not always repeated. Some of the results follow. Shown are side measurements of this screen, not its main read-out; they come without a call. The list favours compounds with an active or inconclusive main result. For part of these data: Words in brackets tell the shape of the fitted curve; partial curves, single points and poor fits give uncertain potencies.

What was measured:
[1] = qHTS Assay for Lipid Storage Modulators (AID 1519); conditions: Drosophila S3 cells, BODIPY lipid droplet/cell ratio, laser cytometry, cells loaded with oleic acid
Outline: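 Cells seeded at 5,000 per well were treated with compounds over a concentration series and loaded with oleic acid (400 uM, as added). Lipid droplet fluorescence (488 nm excitation, 500-530 nm channel) was read by laser-scanning cytometry and normalized to 20 uM Triacsin C.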

[2] = qHTS Assay for Modulators of Human Peripheral Myelin Protein 22 (PMP22) Expression/Activity (AID 1967); conditions: Cell-based PMP22 reporter, dual-color luciferase ratio
Outline: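 Readout is the corrected green/red luminescence ratio after 24 h compound exposure, normalised to untreated cells (0%). Engineered MSC80 mouse Schwann cells express green luciferase from the mouse Pmp22 promoter and red luciferase from EF-alpha as internal control.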

[3] = qHTS assay for small molecule antagonists of peroxisome proliferator-activated receptor gamma signaling (AID 588537); conditions: HEK293 PPARg-UAS-bla, beta-lactamase ratio, antagonist mode; measured here: W460 blue channel
Outline: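 Antagonist-mode β-lactamase reporter screen run as a titration series. HEK293 PPARγ-UAS-bla cells are stimulated with rosiglitazone (50 nM final) for 16 h, then CCF4 is read at 460/530 nm. Data are scaled between DMSO and rosiglitazone and fitted to the Hill equation.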

[4] = qHTS assay for small molecule antagonists of retinoid X receptor alpha signaling (AID 588546); conditions: HEK293T RXRa-UAS-bla, beta-lactamase ratio, antagonist mode; measured here: W530 green channel, cytotoxicity proxy;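 further: cells stimulated with 9-cis-retinoic acid as agonist; on the % scale 0 is the no-effect control and ±100 the full control effect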
Outline: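 Beta-lactamase reporter inhibition, read as CCF4 fluorescence ratio (ex 405, em 460/530 nm) after 2 h at RT. HEK293T UAS-bla cells, 2500/well, were stimulated with 9-cis-RA at 500 or 100 nM final alongside test compound for 18 h at 37 C.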

[5] = qHTS Assay for Inhibitors of PDE-IV (AID 607); conditions: HEK293 ACTOne CNG channel cells, membrane potential fluorescence; measured here: parental cell counter-screen;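 further: parental cells stimulated with forskolin 10 µM plus RO 20-1724 100 µM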
Outline: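 ACTOne HEK293 cells carry a modified cAMP-gated CNG channel and express endogenous PDE4; plated 1000 cells/well, compounds up to 22.9 uM final. Membrane-potential dye fluorescence (ex 535/em 590) was read; parental cells received 10 uM forskolin + 100 uM RO 20-1724.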

[6] = qHTS Validation Assay to Find Inhibitors of Chronic Active B-Cell Receptor Signaling (AID 485345); conditions: ABC-DLBCL cells, chronic BCR signaling reporter
Outline: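 Read-out: ratio of filter-corrected green (IkappaBalpha fusion) to red (native) luciferase signal in doxycycline-induced TMD8 cells after 4 h at 37C. Titration spanned 46 uM–3 nM; Data were normalised to basal cells and 10 uM MG-132 wells.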

[7] = qHTS assay for small molecule antagonists of peroxisome proliferator-activated receptor delta signaling (AID 588535); conditions: HEK293T PPARd-UAS-bla, beta-lactamase FRET ratio, 18 h; 460 nm channel;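 further: cells co-treated with a PPAR-delta agonist as stimulator during compound exposure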
Outline: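 Titrations were run on PPAR-delta-UAS-bla HEK293T cells in charcoal/dextran-stripped serum, incubated 18 h at 37 C. CCF4 fluorescence (460/530 nm) after 2 h RT; Hill equation yields IC50 and maximal response.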

[8] = qHTS assay for small molecule agonists of retinoid X receptor alpha signaling (AID 588544); conditions: HEK293T RXRa-UAS-bla, beta-lactamase reporter, 18 h; 530 nm emission
[9] = Nrf2 qHTS screen for inhibitors: Validation (AID 493153); conditions: A549 ARE-Fluc reporter, 18-24 h; AC50: CellTiter-Fluor fluorescence read, measured here: cytotoxicity CellTiter-Fluor AC50; viability change: measured here: cytotoxicity max response
Outline: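 A549 ARE_Fluc, 5% FBS OPTI-MEM; cpd titration, 18-24 h, 37°C/5% CO2. Read 1: CellTiter-Fluor (Ex 405/Em 525), cytotox. Read 2: luciferase lum, Nrf2 activity.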

[10] = qHTS assay for small molecule antagonists of vitamin D receptor signaling (AID 588541); conditions: HEK293T VDR-UAS-bla, beta-lactamase ratio, antagonist mode; measured here: W460 blue channel (cell viability)
[11] = S16 Schwann cell PMP22 intronic element beta-lactamase assay (AID 624044); conditions: S16 rat Schwann cells, PMP22 element beta-lactamase FRET, 24 h; measured here: 460 nm blue channel; further: nearly all actives have a fitted effect of over 15% in size
Outline: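 Beta-lactamase reporter under a PMP22 intronic regulatory element in stable S16 rat Schwann cells; 24 h compound exposure. 460 nm blue signal normalized between DMSO (0%) and potassium clavulanate, with 535 nm FRET tracking viability; curves classed by r2 and response.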

[12] = measured here: cell count channel max response
[13] = measured here: cell number channel AC50
[14] = measured here: lipid (BODIPY) channel AC50
[15] = measured here: lipid channel max response
[16] = measured here: green reporter channel AC50, mouse Pmp22 promoter in mouse Schwann cells
[17] = measured here: red reporter channel AC50, EF-alpha promoter control reporter in MSC80 mouse Schwann cells
[18] = measured here: CBG/CBR ratio read-out
[19] = measured here: CBR control luciferase (viability counter)
Tags describe the fitted curve by direction and shape.

Question: What does the source list for `CC(C)NCC(O)COc1cccc2ccccc12` (stereo not given)?
Answer: max response [1, 12]: -5.2%; AC50 [1, 13]: 0.631 µM [falling, full curve, poor fit]; AC50 [1, 14]: 0.631 µM [falling, full curve, poor fit]; max response [1, 15]: -4.22%; AC50 [2, 16]: 75.7 µM [falling, partial curve]; AC50 [2, 17]: 84.9 µM [falling, single point]; AC50 [3]: 14.1 nM [falling, full curve, poor fit]; max response [4]: -3.26%

Question: What does the source list for `COC(=O)[C@H](NC(=O)c1cc(-c2ccccc2)nc2ccccc12)c1ccccc1`?
Answer: AC50 [5]: 12.6 µM [rising, partial curve]; max response [1, 12]: 144% and 79.9%; AC50 [1, 13]: 20 µM [rising, partial curve]; AC50 [1, 14]: 20 µM [rising, partial curve]; max response [1, 15]: 182% and 87.1%; AC50 [2, 16]: 84.9 µM [falling, single point]; AC50 [2, 17]: 84.9 µM [falling, single point]

Question: Which results are given for `CC1=C(/C=C/C(C)=C/C=C/C(C)=C\C(=O)O)C(C)(C)CCC1`?
Answer: max response [1, 12]: 49.4%; AC50 [1, 13]: 39.8 µM [rising, single point]; AC50 [1, 14]: 39.8 µM [rising, partial curve, poor fit]; max response [1, 15]: 52.8%; AC50 [2, 17]: 2.39 µM [falling, full curve, poor fit]; AC50 [6, 18]: 9.2 µM [falling, partial curve]; AC50 [6, 19]: 13 µM [falling, single point]

Question: What does the source list for `Cc1nc2c(OCc3ccccc3)cccn2c1CC#N`?
Answer: max response [1, 12]: 104% and 45.8%; AC50 [1, 13]: 2.51 µM [rising, full curve]; AC50 [1, 14]: 2.24 µM [rising, full curve]; max response [1, 15]: 138% and 39.6%; AC50 [2, 16]: 23.9 µM [rising, full curve, poor fit]; AC50 [6, 19]: 6.51 µM [rising, single point]

Question: Which max response [1, 12] does the source give for `NC(=O)c1cnccn1` here?
Answer: -0.0576%

Question: What about the AC50 [1, 13] of the same compound?
Answer: 11.2 µM [falling, partial curve, poor fit]

Question: And the AC50 [1, 14]?
Answer: 11.2 µM [falling, partial curve, poor fit]

Question: And the max response [1, 15]?
Answer: 3.93%

Question: And the max response [7]?
Answer: -25.5%

Question: And the max response [8]?
Answer: 1.27%

Question: And the max response [4]?
Answer: -10.9%

Question: Which results are given for `CN(C(=O)CCCOc1ccc2[nH]c(=O)ccc2c1)C1CCCCC1`?
Answer: max response [1, 12]: 67% and 39.6%; AC50 [1, 13]: 14.1 µM [rising, partial curve, poor fit] and 22.4 µM [falling, single point]; AC50 [1, 14]: 15.8 µM [rising, partial curve, poor fit]; max response [1, 15]: 90.5% and 30.8%; AC50 [2, 17]: 75.7 µM [falling, partial curve]; viability change [9]: -0.395%

Question: Which max response [1, 12] does the source give for `O=c1[nH]c2cc(Cl)ccc2c(O)c1-c1ccc(Oc2ccccc2)cc1` here?
Answer: 52.4%

Question: What about the AC50 [1, 13] of the same compound?
Answer: 31.6 µM [rising, partial curve, poor fit]

Question: What about the AC50 [1, 14] of the same compound?
Answer: 31.6 µM [rising, partial curve, poor fit]

Question: What about the max response [1, 15] of the same compound?
Answer: 53.2%

Question: What about the AC50 [6, 19] of the same compound?
Answer: 18.4 µM [falling, single point]

Question: And the viability change [9]?
Answer: -9.66%

Question: With `CC1(C)CCC(C)(C)c2cc(C(=O)Nc3ccc(C(=O)O)cc3)ccc21` as the compound, how does the max response [1, 12] read?
Answer: 46%

Question: And the AC50 [1, 13]?
Answer: 20 µM [rising, partial curve, poor fit]

Question: And the AC50 [1, 14]?
Answer: 20 µM [rising, partial curve, poor fit]

Question: And the max response [1, 15]?
Answer: 51%

Question: What about the max response [7] of the same compound?
Answer: 100%

Question: What about the AC50 [10] of the same compound?
Answer: 25.1 µM [rising, full curve, poor fit]

Question: And the max response [8]?
Answer: -22.1%

Question: Which results are given for `Cc1cc(C(C)(C)CC(C)(C)C)ccc1OCCOCC[N+](C)(C)Cc1ccccc1`?
Answer: max response [1, 12]: -55% and -45.3%; AC50 [1, 13]: 15.8 µM [falling, single point] and 20 µM [falling, partial curve]; AC50 [1, 14]: 15.8 µM [falling, partial curve, poor fit] and 10 µM [falling, partial curve]; max response [1, 15]: -99.7% and -111%; AC50 [3]: 31.6 nM [falling, full curve, poor fit]; max response [8]: 40.5%; max response [4]: 9.67%

Question: With `CC1=C(/C=C/C(C)=C/C=C/C(C)=C/CO)C(C)(C)CCC1` as the compound, how does the max response [1, 12] read?
Answer: 36.5% and 75.1%

Question: What about the AC50 [1, 13] of the same compound?
Answer: 28.2 µM [rising, single point] and 31.6 µM [rising, partial curve, poor fit]

Question: And the AC50 [1, 14]?
Answer: 35.5 µM [rising, single point] and 31.6 µM [rising, partial curve, poor fit]

Question: What about the max response [1, 15] of the same compound?
Answer: 55.7% and 79.2%

Question: What about the max response [7] of the same compound?
Answer: 262% and 87.1%

Question: What about the AC50 [3] of the same compound?
Answer: 44.7 µM [rising, single point] and 25.1 nM [falling, full curve, poor fit]

Question: And the AC50 [10]?
Answer: 39.8 µM [rising, partial curve, poor fit]

Question: What about the max response [8] of the same compound?
Answer: 3.32% and 28.7%

Question: And the AC50 [11]?
Answer: 0.999 µM [falling, full curve, poor fit]

Question: For `COc1ccccc1N1CCN(CCCCN2C(=O)c3ccccc3C2=O)CC1`, which max response [1, 12] is on record?
Answer: 65.2% and 60%

Question: What about the AC50 [1, 13] of the same compound?
Answer: 12.6 µM [rising, full curve]

Question: What about the AC50 [1, 14] of the same compound?
Answer: 12.6 µM [rising, full curve]

Question: What about the max response [1, 15] of the same compound?
Answer: 78.9% and 57.1%

Question: What about the AC50 [6, 18] of the same compound?
Answer: 7.31 µM [falling, partial curve]
